Data from PubChem BioAssay (NCI).
Values joined by “and” are separate entries in the source; they are usually repeats but may differ in a detail not shown here. Equal entries are not always repeated.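 Assay format: 96-well plates, 48-hour exposure. GI50 = concentration required for 50% inhibition of growth. Definition used: TGI = concentration required for complete inhibition of growth.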

Test system: NCI-H322M lung
Experiment: NCI anticancer screen, dose series, 48 h

Compound | GI50 | TGI [µM]
COc1ccc2c(c1)C(=O)c1c-2n(CCCN)c(=O)c2cc([N+](=O)[O-])ccc12 | 1.88 µM | 6.18
Cc1ccc(S(=O)(=O)c2ccc([N+](=O)[O-])o2)cc1 |  | 31
S=C(N/N=C\c1ccccn1)N(Cc1ccccn1)Cc1ccccn1 |  | 19.3
CC(=O)Nc1ccc(C(=O)N2N=C(C)/C(=C/c3cccc([N+](=O)[O-])c3)C2=O)cc1 |  | > 100
CSc1ncc2c(n1)-c1ccccc1OC2NC(C)(C)C (configuration not stated) |  | > 100
O=C1CSC(c2ccccc2O)N1c1nnc(Cn2ccnc2)o1 (configuration not stated) | 4.38 µM | 21.5
CCC[CH2][Sn]([CH2]CCC)([O]C(=O)/C=C/c1ccccc1F)[O]C(=O)/C=C/c1ccccc1F | 1.98 µM | 4.45
NS(=O)(=O)c1cccc(-c2ccc3c(NC(=O)C4CC4)n[nH]c3c2)c1 | > 25 µM | > 25
COC/N=C(/N)NC#N |  | > 100
COc1ccc2c(-c3ccc(OCCN(C)C)cc3)c(Oc3ccc(Cl)cc3)c(=O)oc2c1 |  | 16.1
CCOC(=O)C1=C(C)N2C(=NC3=C(CCC/C3=C\c3ccc(Cl)cc3)C2c2ccc(Cl)cc2)S1 (configuration not stated) | 18.6 µM | > 100
N/C(=N\c1nc2ccccc2s1)NC(=NC1CCCCC1)NC1CCCCC1 | 1.57 µM | 3.02
Cc1cc(S(=O)(=O)Nc2nc3ccccc3n2-c2ccccc2)c(S)cc1Cl |  | > 100
COC(=O)/C(=C\c1ccco1)P(=O)(OC)OC |  | > 100
N=C(N)c1ccc(-c2ccc(-c3ccc(Cl)cc3)s2)nc1 | 1.36 µM | 2.64
CC1=NN(C(=O)c2ccc(Cl)cc2)C(=O)/C1=C/c1ccc(Cl)cc1 |  | > 100
CC(=O)[CH-]C(=O)Nc1ccccc1.CC(=O)[CH-]C(=O)Nc1ccccc1.CC[O-].CC[O-].[Ti+4] | > 100 µM | > 100
Clc1ccccc1NN(Cc1ccncc1)c1ccccc1Cl |  | 28.6
O=C1NC2CCCCC2N=C1/C(C(=O)c1ccccc1)=C(\O)c1ccccc1 (configuration not stated) |  | > 100
CN(CCc1ccc(Cl)c(Cl)c1)CCN(C)CCN1CCCC1 |  | 23.4
CC1=C(C(=O)Nc2ccc(F)c(Cl)c2)C(c2ccccc2O)NC(=O)N1 (configuration not stated) | 19.6 µM | > 100
Cn1c2c(c3ccccc31)CCN1C(=O)C3SC21C1C(=O)N(c2ccccc2)C(=O)C31 (configuration not stated) |  | > 100
N.N.N.N.N.O=S(=O)([O-])C(F)(F)F.O=S(=O)([O-])C(F)(F)F.[Os+8] | 6.81 µM | 20.7
CCN(CC)CCCC(C)Nc1c(Sc2cnc3cc(Cl)ccc3c2NC(C)CCCN(CC)CC)cnc2cc(Cl)ccc12 (configuration not stated) |  | 6.17

Compound | GI50 | TGI [µM]
O=C(NCC(=O)N1CCOC1=O)OCc1ccccc1 |  | > 100
Nc1ccc(C(=O)NN2C(=O)C(Cl)C2c2cccc(O)c2)cc1 (configuration not stated) |  | 29.7
COc1ccc(Oc2ccccc2NC(=O)CNC(=O)c2cccc3ccccc23)cc1 | 1.24 µM | > 25
CCCCc1c2c(nc3c1CCc1cc4cc5c(nc4nc1-3)-c1nc3c(c(CCCC)c1CC5)CCC/C3=C\c1ccccc1)/C(=C/c1ccccc1)CCC2 |  | > 100
COc1cc(/C=C2\Cc3cc(OC)c(OC)cc3C2=O)cc(OC)c1 |  | > 100
COC(=O)/C(C#N)=C1\CCc2ccccc21 |  | > 100
CCN1CCCC(Nc2cc(C)nc(/N=C(/N)Nc3ccc(Cl)c(Cl)c3)n2)C1 (configuration not stated) |  | 4.1
CN1Cc2c(nc(-c3ccc(Br)cc3)c[n+]2[O-])N(C)C1 |  | > 100
COc1cc(OC)c2c(O)c(S(=O)(=O)c3ccc(C)cc3)c(=O)oc2c1 |  | > 100
COc1cc2c(c(OC)c1OC)-c1c(cc3c(c1OC)OCO3)CC(C)C(C)(O)C2OC(=O)c1ccccc1 (configuration not stated) |  | > 100
CN1CCc2c1nc(-c1cccnc1)c1c2N(C)CC1 |  | > 100
CCNc1ncnc2c1nnn2CC |  | > 100
CNC(=S)N/N=C(\C)c1nc2ncccc2[nH]1 |  | > 100
O=C1CCC(N2C(=O)c3cccc(NCCCC4CCN(CCNC(=O)c5cc6c(o5)C(=O)c5ccccc5C6=O)CC4)c3C2=O)C(=O)N1 (configuration not stated) | 0.439 µM | 0.868
CCCCc1ccc(-n2sc3ncccc3c2=O)cc1 |  | 96.2
C[C@H]1c2ccccc2CN1CCCOc1cc2c(cc1OCC1CC1)C1(CCCC1)C(N)=N2 | 2.2 µM | 7.9
O=C(/C=C(\O)c1ccccc1)/C(=C/C(=O)c1ccccc1)NN=C(c1ccccc1)c1ccccc1 |  | > 100
Cc1ccc(NC(=O)CC2SC(N)=NC2=O)cc1C (configuration not stated) |  | > 100
C=CCC1(CC)C(=O)NC(=O)NC1=O |  | > 100
O=C1c2ccccc2C(=O)N1C1(C(=O)NC2(C(=O)O)CCCC2)CCCC1 |  | > 100
Cc1nn(C)c2nc3ccc(Cl)cc3c(-c3ccccc3)c12 |  | > 100
COc1cc(/C=C/[N+](=O)[O-])cc(OC)c1OC | 12.6 µM | 26.6
O=c1cccc(C#CC#CCCCO)o1 | 1.58 µM | 10
ONC1=Nc2ccccc2OCc2cc(Br)c(Br)cc2COc2ccccc2N=C1NO |  | 30

Compound | GI50 | TGI [µM]
N#Cc1c(Nc2nc3ccccc3s2)c2ccccc2n2c1nc1ccccc12 |  | > 100
COC1=CC(=O)c2c(O)c3c(c(O)c2C1=O)C[C@](C)(O)C[C@@H]3O |  | 9.42
Nc1ccc(C(=O)N/C(=C\c2cccc([N+](=O)[O-])c2)c2nc3ccc(Cl)cc3[nH]2)cc1 |  | > 100
O=C1CCC2(O)C3Cc4ccc(Oc5nnnn5-c5ccccc5)c5c4C2(CCN3CC2CC2)C1O5 (configuration not stated) |  | > 100
CSCCCNC(=O)c1csc(-c2csc(CCNC(=O)CNC(=O)CNC(=O)CNC(=O)OC(C)(C)C)n2)n1 |  | > 100
Brc1cccc(-c2cc(-c3ccc4nccnc4c3)[nH]n2)c1 | 1.42 µM | > 250
O=NN(CCCl)C(=O)NC1CCC(=O)NC1=O (configuration not stated) |  | > 1250
C=C1CC[C@@H]2[C@](C)(COC(C)=O)[C@H](OC(C)=O)CC[C@@]2(C)[C@@H]1CC(Nc1ccc(S(=O)(=O)Nc2nccs2)cc1)C1=CCOC1=O (some centres not stated) | 12 µM | 24.9
CCOC1OC(=O)[C@H]2[C@@H]1[C@@H]1CC[C@H]2O1 (some centres not stated) | > 100 µM | > 100
O=c1c(O)cccn1CCCN(CCCn1cccc(O)c1=O)CCn1cccc(O)c1=O | 2.29 µM | > 100
CC(=O)Nc1ccc(C(=O)NN2C(=O)C(Cl)C2c2ccc(O)cc2)cc1 (configuration not stated) |  | > 100
Cc1occ2c1C(=O)CC1C2[C@@H](O)CC2C(C)(C)CCC[C@]12C (some centres not stated) |  | > 100
O=C1/C(=C/c2cccc(Br)c2)COc2ccc(O)c(O)c21 | 1.66 µM | 3.43
Cc1c(C#N)c2nnn(-c3ccccc3)c(=O)n2c1-c1ccccc1 |  | > 100
O=C1c2ccccc2-c2nc(-c3ccccc3)cc3c2c1nc1ccccc13 |  | 60.4
O=C(N/C(=C\c1cc(Cl)ccc1Cl)c1nc2ccc(Cl)cc2[nH]1)c1ccccc1 |  | 53.8
Nc1n[nH]c2ccc([C@@H]3Nc4cc5[nH]ncc5cc4[C@H]4C5CCC(C5)[C@@H]34)cc12 (some centres not stated) | 0.667 µM | > 100
COc1cc(/C=C\c2ccncc2)cc(OC)c1OC |  | > 100
CC(=O)CC(C)(C)NC(=O)[C@@]1(O)CC[C@H]2[C@@H]3CCC4=CC(=O)CC[C@@H]4[C@H]3CC[C@@]21C |  | > 100
CCCCCn1c(=O)c2c(=O)[nH][nH]c2c2ccccc21 |  | > 100
CCN(CC)C(=O)COc1cc2c(O)c3c(O)c(C)c4c(c13)C(=O)C(C)(OC=CC(OC)C(C)C(OC(C)=O)C(C)C(O)C(C)C(O)C(C)C=CC=C(C)C(=O)N2)O4 (configuration not stated) |  | > 100
COCCOCOC(C)(C)[C@H](CCOC(C)=O)O[Si](c1ccccc1)(c1ccccc1)C(C)(C)C |  | 79.2
O=C(O)COc1ccc(C(=O)/C(SS/C(C(=O)c2ccc(OCC(=O)O)c(Cl)c2Cl)=C2\C=C(c3ccc(Br)cc3)SS2)=C2/C=C(c3ccc(Br)cc3)SS2)c(Cl)c1Cl |  | > 100
Nc1ccc(-c2nc3ccc(F)cc3s2)cc1 |  | > 100

Compound | GI50 | TGI [µM]
CSc1nc(C#N)c(N)n1C |  | > 100
NC(=O)c1cccc(-c2cc(C(N)=O)ccc2Cl)c1 | 50.5 µM | > 100
Cc1ccc(Sc2oc(-c3ccc(C)cc3)nc2[P+](c2ccccc2)(c2ccccc2)c2ccccc2)cc1 | 0.385 µM | 1.51
O=S(=O)(O)c1cc(O)c2c(O)c(N=Nc3cccc4ccccc34)c(S(=O)(=O)O)cc2c1 |  | > 100
N#CC1(c2ccccc2)CCN(C2(c3ccccc3)CCCCC2)CC1 |  | > 100
[N-]=[N+]=NC[C@H]1OCO[C@H](CN=[N+]=[N-])[C@H]2OCCOCCOc3ccccc3OCCOCCO[C@@H]21 |  | > 100
NCCC(=O)NC(Cc1cnc[nH]1)C(=O)O (configuration not stated) |  | > 100
CC(C)(C)OC(=O)NCC(=O)NC1C/C(=N\O)c2sccc21 (configuration not stated) |  | > 100
CC1=C[C@@H](C)C[C@]2(C)CC[C@H](O2)[C@]23CC[C@](C)(C[C@H](O2)[C@@H]2O[C@@](C)(CC2=O)[C@@H](O)[C@H]2CC[C@@]4(CCC[C@@H](O4)[C@H](C)C(=O)O[C@H]4C[C@H]([C@]5(O)OCC[C@H](C)[C@@H]5O)O[C@H]4C=C1)O2)O3 |  | > 10
O=C(O)[C@@H](NS(=O)(=O)c1ccc2ccccc2c1)c1ccccc1 |  | > 100
CCOC(=O)c1c(N2CCOCC2)[nH]c(=O)c(C(c2cccs2)c2c(O)c(C(=O)OCC)c(N3CCOCC3)[nH]c2=O)c1O |  | > 100
CC1(C)CC2=C(Sc3ccccc3N2)C(=O)C1C(=O)C(=O)Nc1cc(Cl)ccc1Cl (configuration not stated) |  | > 100
Cc1cc(NC(=O)c2cnc(N3CCN(CCOCCOCCOCCOCCC(=O)N[C@H](C(=O)N4C[C@H](O)C[C@H]4C(=O)N[C@@H](C)c4ccc(-c5scnc5C)cc4)C(C)(C)C)CC3)cn2)c2ncccc2c1 | 3.74 µM | 19.8
COc1cc([C@H]2Oc3c(OC)cc(CCCO)cc3[C@@H]2CO)ccc1O |  | > 100
Cc1cc(C)nc(NS(=O)(=O)c2ccc(NC(=O)c3cccn4c(=O)c5ccccc5nc34)cc2)n1 |  | > 100
Nc1n[nH]c(N)c1N=Nc1ccc(O)cc1 | 25 µM | 88.7
COC1(C)C(=O)N2C1N(C(=O)OCc1ccccc1)CC2(C)C (configuration not stated) |  | > 100
COc1ccc(Cc2nc3ccccc3s2)cc1OC |  | 87.1
CCSc1nc(N)c(C#N)c(-c2ccco2)c1C#N | 74.3 µM | > 100
O=C(O)c1cc(Cl)cc2c1NC1(N2)C(=O)Nc2ccccc21 (configuration not stated) |  | > 100
C=CCCCOC1[C@H](OCc2ccccc2)C(OCc2ccccc2)C(OC)O[C@@H]1CNC(=O)c1cccc(I)c1 (some centres not stated) | 7.43 µM | > 100
C[C@@H]1COCCN1c1cc(-c2ccnn2C)c2ccnc(-c3ccn[nH]3)c2n1 | 0.038 µM and 0.0525 µM | > 26.3
